# Reference: PubChem BioAssay (EPA / NIEHS)
# A number of entries come with more than one value. This is not the full list of results. An entry can have further records. Results that share an entry repeat one measurement (runs, samples, wells, individuals or studies). Inconclusive results are not listed. The calls were made as follows, unless noted: active = hit-call score of the fitted dose curve at least 0.9, where 1 is the maximum; inactive = score below 0.9. More than one record can exist for a structure, and the calls need not agree.
# Experiments:
# [1] = molecular target: Nuclear receptor subfamily 1 group I member 2 (Homo sapiens) (UniProt O75469); assay: ATG_PXR_TRANS: Attagene TRANS-FACTORIAL HepG2 Assay for human Pregnane X Receptor (PXR) (AID 2283008; active = hit-call score of the fitted dose curve at least 0.9, where 1 is the maximum)
# Chain of UniProt O75469 (O75469 whole entry, looked up, the tested form may be a part): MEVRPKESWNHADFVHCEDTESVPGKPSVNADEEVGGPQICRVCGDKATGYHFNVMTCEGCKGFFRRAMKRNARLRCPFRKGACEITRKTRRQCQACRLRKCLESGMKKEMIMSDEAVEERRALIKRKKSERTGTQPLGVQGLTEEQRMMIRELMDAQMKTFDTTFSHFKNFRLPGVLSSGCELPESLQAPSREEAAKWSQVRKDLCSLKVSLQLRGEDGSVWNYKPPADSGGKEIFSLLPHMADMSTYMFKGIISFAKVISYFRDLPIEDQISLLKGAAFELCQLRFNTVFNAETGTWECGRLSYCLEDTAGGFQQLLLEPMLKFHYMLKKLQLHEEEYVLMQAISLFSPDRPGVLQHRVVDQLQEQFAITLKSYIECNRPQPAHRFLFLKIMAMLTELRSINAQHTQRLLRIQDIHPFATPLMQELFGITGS
# Method in brief: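 HepG2 cells transiently transfected with multiple reporter units, here a PXR-GAL4 chimera driving a GAL4-UAS reporter; 24 h compound exposure. Reporter mRNA measured by RT-PCR, FAM labelling and capillary electrophoresis; gain of signal fitted against DMSO baseline.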
# [2] = molecular target: Aryl hydrocarbon receptor (Homo sapiens) (UniProt P35869); assay: ATG_Ahr_CIS: Attagene CIS-FACTORIAL HepG2 Assay for human Aryl Hydrocarbon Receptor (Ahr) (AID 2282930); settings: HepG2 AhR cis-factorial reporter transcription; actives raise or lower the signal
# Chain of UniProt P35869 (P35869 whole entry, looked up): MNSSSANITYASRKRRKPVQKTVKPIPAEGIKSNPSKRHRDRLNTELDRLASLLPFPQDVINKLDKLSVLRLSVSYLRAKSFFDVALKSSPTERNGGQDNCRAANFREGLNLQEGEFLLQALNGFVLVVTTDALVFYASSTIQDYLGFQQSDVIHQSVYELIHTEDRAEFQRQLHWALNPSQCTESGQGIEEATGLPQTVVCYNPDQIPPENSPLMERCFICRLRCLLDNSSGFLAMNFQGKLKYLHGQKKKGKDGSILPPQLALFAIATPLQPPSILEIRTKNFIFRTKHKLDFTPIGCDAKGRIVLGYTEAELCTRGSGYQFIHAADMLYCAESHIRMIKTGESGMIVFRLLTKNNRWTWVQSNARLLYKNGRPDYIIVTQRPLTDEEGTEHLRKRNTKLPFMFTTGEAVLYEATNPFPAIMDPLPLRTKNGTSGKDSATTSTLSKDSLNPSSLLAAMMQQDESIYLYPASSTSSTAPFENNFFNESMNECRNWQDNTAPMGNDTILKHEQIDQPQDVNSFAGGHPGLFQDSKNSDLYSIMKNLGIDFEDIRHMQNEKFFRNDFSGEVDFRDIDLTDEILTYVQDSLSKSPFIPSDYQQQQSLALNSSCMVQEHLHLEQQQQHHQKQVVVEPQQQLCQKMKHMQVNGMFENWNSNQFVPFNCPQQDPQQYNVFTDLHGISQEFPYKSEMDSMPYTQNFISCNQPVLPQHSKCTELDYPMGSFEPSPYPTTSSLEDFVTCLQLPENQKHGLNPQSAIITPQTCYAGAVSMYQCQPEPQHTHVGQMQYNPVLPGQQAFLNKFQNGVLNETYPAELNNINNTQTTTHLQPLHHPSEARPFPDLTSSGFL
# Method in brief: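 Values derive from bidirectional fitting against DMSO negative control. Underlying signal: cis-element reporter mRNA in transiently transfected HepG2, harvested 24 h post-dose and measured by RT-PCR plus capillary electrophoresis.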
# [3] = ATG_VDRE_CIS: Attagene CIS-FACTORIAL HepG2 Assay for human Vitamin D Receptor Element (VDRE) (AID 2282968); settings: HepG2 VDRE cis-reporter transcription, actives raise or lower the signal
# Method in brief: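 HepG2 cells transiently transfected with cis-element reporter units, dosed 24 h; reporter mRNA measured by RT-PCR, 6-FAM labeling, HpaI digestion and capillary electrophoresis. Activity fitted bidirectionally against DMSO baseline.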
# [4] = BSK_hDFCGF_Proliferation: Cell Proliferation Assessment in the BioMAP Diversity Plus: hDFCGF Assay (AID 2283059); settings: primary human foreskin fibroblasts;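 also: curves fitted for both rise and fall of signal versus DMSO baseline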
# Method in brief: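 Sub-confluent human foreskin fibroblast cultures receive test chemical […]. Relative cell number is quantified by sulforhodamine B staining (0.1%, after 10% TCA fixation) at 560 nm, with bidirectional fitting referenced to DMSO.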
# [5] = molecular target: human Dopamine Transporter (DAT), SLC6A3 (gene 6531) (UniProt Q01959); assay: NVS_TR_hDAT: NovaScreen (NVS) Transporter Assay for human Dopamine Transporter (DAT) (AID 2283374; active = hit-call score of the fitted dose curve at least 0.9, where 1 is the maximum;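 also: activity means loss of bound radioligand signal relative to DMSO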)
# Chain of UniProt Q01959 (Q01959 whole entry, looked up): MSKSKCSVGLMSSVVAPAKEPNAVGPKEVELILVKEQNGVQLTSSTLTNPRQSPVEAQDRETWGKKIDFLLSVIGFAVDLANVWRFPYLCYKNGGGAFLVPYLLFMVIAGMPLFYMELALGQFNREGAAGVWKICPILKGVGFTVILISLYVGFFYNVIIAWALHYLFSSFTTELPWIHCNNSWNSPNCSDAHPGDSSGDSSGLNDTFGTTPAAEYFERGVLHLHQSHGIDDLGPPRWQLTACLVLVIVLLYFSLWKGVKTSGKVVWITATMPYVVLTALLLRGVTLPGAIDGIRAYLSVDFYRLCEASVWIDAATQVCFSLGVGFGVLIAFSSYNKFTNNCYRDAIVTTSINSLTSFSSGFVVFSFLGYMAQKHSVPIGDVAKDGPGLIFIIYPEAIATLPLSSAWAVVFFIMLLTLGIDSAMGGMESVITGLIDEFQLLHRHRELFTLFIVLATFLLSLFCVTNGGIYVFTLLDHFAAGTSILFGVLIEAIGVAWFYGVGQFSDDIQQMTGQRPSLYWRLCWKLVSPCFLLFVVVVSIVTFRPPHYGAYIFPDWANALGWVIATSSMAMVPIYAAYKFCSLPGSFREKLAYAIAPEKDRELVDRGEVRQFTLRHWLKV
# Method in brief: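 Cell-free radioligand binding to extracted human DAT protein, read 1 h after dosing by filter-based scintillation counting. Loss of specific binding scored against DMSO baseline; primary screen in duplicate at 25 uM, actives then run in concentration series.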
# [6] = CEETOX_H295R_OHPREG: CeeTox H295R High-throughput Steroidogenesis Assay for OH-Pregnenolone (OHPREG) (AID 2283434); settings: actives raise or lower the signal
# Method in brief: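 Human adrenal H295R cells were prestimulated 48 h with 10 uM forskolin, then exposed 48 h to chemical in 0.1% DMSO. Medium 17alpha-hydroxypregnenolone was quantified by HPLC-MS/MS after MTBE extraction; bidirectional fitting versus DMSO baseline.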
# [7] = CEETOX_H295R_PROG: CeeTox H295R High-throughput Steroidogenesis Assay for Progesterone (PROG) (AID 2283442); settings: actives raise or lower the signal;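 also: human H295R adrenal cells primed with 10 µM forskolin before dosing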
# Method in brief: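 H295R adrenal cells prestimulated 48 h with 10 uM forskolin, then exposed 48 h to test chemical in 0.1% DMSO. Progesterone in medium quantified by HPLC-MS/MS after MTBE extraction; viability checked by MTT in same wells.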
# [8] = ATG_PPRE_CIS: Attagene CIS-FACTORIAL HepG2 Assay for human Peroxisome Proliferator-activated Response Element (PPRE) (AID 2282958); settings: HepG2 PPRE cis-element reporter, Attagene transcription factor profiling; actives raise or lower the signal
# Method in brief: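 After human HepG2 hepatoma cells were transiently transfected with cis-promoter reporter constructs, they were exposed to test chemicals for 24 hours. Reporter RNA was then reverse-transcribed, PCR-amplified, FAM-labeled, HpaI-digested and quantified by capillary electrophoresis.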
# [9] = molecular target: Transcription factor Sp1 (Homo sapiens) (UniProt P08047); assay: ATG_Sp1_CIS: Attagene CIS-FACTORIAL HepG2 Assay for human Specificity Protein 1 (Sp1) (AID 2282961); settings: HepG2 Sp1 cis-reporter transcription, actives raise or lower the signal
# Chain of UniProt P08047 (P08047 whole entry, looked up): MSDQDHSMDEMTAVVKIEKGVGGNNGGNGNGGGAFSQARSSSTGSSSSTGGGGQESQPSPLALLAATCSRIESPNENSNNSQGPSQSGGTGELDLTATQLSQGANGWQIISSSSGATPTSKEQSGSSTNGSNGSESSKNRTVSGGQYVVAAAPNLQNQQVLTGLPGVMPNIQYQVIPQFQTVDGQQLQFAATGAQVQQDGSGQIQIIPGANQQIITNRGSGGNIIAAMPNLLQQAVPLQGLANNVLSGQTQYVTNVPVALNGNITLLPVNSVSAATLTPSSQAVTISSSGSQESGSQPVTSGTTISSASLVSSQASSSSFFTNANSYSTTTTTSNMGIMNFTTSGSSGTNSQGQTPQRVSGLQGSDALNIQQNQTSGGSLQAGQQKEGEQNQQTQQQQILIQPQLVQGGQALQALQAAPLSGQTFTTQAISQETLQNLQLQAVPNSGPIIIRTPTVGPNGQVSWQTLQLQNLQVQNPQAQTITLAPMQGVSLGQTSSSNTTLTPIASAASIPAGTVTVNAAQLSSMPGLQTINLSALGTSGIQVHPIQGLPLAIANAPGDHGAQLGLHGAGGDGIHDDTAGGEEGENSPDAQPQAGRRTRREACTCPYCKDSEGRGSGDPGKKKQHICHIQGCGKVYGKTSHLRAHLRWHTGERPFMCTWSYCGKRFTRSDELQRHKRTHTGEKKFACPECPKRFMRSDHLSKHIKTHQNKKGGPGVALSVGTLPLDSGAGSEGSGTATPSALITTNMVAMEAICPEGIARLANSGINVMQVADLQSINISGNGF
# Method in brief: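 After transient transfection of HepG2 cells with cis-promoter reporter units and 24 h chemical treatment, reporter transcripts were quantified by RT-PCR and capillary electrophoresis fluorescence. Gain- and loss-of-signal fitted against DMSO.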
# [10] = read-out: Interleukin-6 (IL6), IL6 (gene 3569); assay: BSK_CASM3C_IL6: BioMAP Diversity Plus: CASM3C Assay for Interleukin-6 (IL6) Biomarker Activity for (AID 2283040); settings: actives raise or lower the signal; primary human coronary artery smooth muscle cells
# [11] = molecular target: Cytochrome P450 2C19 (Homo sapiens) (UniProt P33261); assay: NVS_ADME_hCYP2C19: NovaScreen (NVS) CYP450-related Enzyme Activity (ADME) Assay for human CYP2C19 (AID 2283113; active = hit-call score of the fitted dose curve at least 0.9, where 1 is the maximum;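 also: potency for inhibition seen as loss of fluorescent signal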)
# Chain of UniProt P33261 (P33261 whole entry, looked up): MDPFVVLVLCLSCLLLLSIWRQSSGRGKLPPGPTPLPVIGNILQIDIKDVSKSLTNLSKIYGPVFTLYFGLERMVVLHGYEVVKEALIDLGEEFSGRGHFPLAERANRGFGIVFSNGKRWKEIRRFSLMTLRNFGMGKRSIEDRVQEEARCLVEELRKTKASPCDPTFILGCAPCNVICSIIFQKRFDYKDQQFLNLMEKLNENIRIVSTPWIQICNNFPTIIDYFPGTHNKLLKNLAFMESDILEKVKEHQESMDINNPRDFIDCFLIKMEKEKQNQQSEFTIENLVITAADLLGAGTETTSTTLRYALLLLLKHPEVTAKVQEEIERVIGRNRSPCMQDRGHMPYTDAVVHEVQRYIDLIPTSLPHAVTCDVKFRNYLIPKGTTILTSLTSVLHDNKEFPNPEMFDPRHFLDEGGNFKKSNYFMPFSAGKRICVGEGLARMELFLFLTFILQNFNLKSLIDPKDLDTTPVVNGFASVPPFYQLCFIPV
# Method in brief: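 Cell-free recombinant human CYP2C19 from insect cells, fluorescent substrate; activity read by fluorescence intensity 1 h after dosing. Primary screen in duplicate at 10 uM; actives retested in concentration series. Signal loss versus acetonitrile negative control.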
# [12] = CPHEA_Stoker_NIS_Cytotoxicity: Cytotoxicity Assessment for CPHEA's Radioactive Iodide Uptake (RAIU) Assay for Sodium/Iodide Symporter (NIS) Inhibition, Stoker and Laws Labs (AID 2283897; active = hit-call score of the fitted dose curve at least 0.9, where 1 is the maximum;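 also: active means loss of ATP signal versus DMSO meaning cytotoxicity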)
# Method in brief: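 hNIS-HEK293T-EPA human kidney cells were exposed for 2 hours at room temperature to test chemicals (0.001–100uM, 0.5% final DMSO) in HEPES-buffered HBSS, pH 7.4. Viability was read as ATP content by luciferase bioluminescence, loss of signal versus DMSO.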
smiles,measurement,setting,value
ClC1C(Cl)C(Cl)C(Cl)C(Cl)C1Cl (stereo not drawn),AC50,[1],"active: 814 nM, 16.5 µM, 2.71 µM, 5.31 µM [separate samples]"
CC(C)(C)C(O)C(Oc1ccc(Cl)cc1)n1cncn1 (stereo not drawn),AC50,[2],"active: 53.5, 31.9, 41.6, 28.2, 15.9 µM [separate samples]"
same,AC50,[3],"active: 2.99, 2.34, 1.23, 5.51 µM [separate samples]"
same,AC50,[4],"active: 3.22, 5.19, 5.54, 11.1 µM [separate samples]"
same,AC50,[5],"active: 402, 133, 420, 602, 492 nM [separate samples]"
same,AC50,[6],"active: 525 nM, 4.31 µM, 4.24 µM, 3.63 µM [separate samples]"
same,AC50,[7],"active: 6.28 µM, 1.97 µM, 2.32 µM, 864 nM [separate samples]"
Oc1cc(Cl)ccc1Oc1ccc(Cl)cc1Cl,AC50,[8],"active: 7.31, 14.3, 15.6, 5.08, 13.3, 5.97 µM [separate samples]"
same,AC50,[9],"active: 16.1, 4.75, 17.3, 8.52 µM [separate samples]"
same,AC50,[1],"active: 4.06, 6.1, 6.27, 11.3, 3.52, 5.64, 5.97 µM [separate samples]"
same,AC50,[10],"active: 559 nM, 31.6 µM, 35.3 µM, 32.5 µM [separate samples]"
same,AC50,[11],"active: 2.43, 2.1, 2.82, 10 µM [separate samples]"
same,AC50,[12],"active: 50, 72.2, 9.92, 13, 27.8, 42.6, 32.1 µM [separate samples]"
